Here are results for 110 sequences from article PMC4242493.

This is one part of the list. The list includes weakly bound sequences.

In this assay the target is MaxL homodimer (UniProt P61244). The experiment in a line: universal protein-binding microarray (PBM). The following applies: PBS-based mixture, 10 nM His-tagged protein dimer, 2% milk, 200 ng/uL BSA, 50 ng/uL salmon testes DNA, 0.02% TX-100; detection with Alexa 488 anti-His …; high values mean tight binding; most listed sequences are background and not binding sites; double strand, one strand shown.
Chain of UniProt P61244 (P61244 whole entry): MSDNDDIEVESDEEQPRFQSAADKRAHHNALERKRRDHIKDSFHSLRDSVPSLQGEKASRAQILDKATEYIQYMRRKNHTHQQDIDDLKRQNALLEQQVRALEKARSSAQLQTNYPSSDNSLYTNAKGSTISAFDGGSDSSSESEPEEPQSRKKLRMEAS
TACCCATA: the binding signal (normalized occupancy) came to 0.0845.

As to CACTATCG, the binding signal (normalized occupancy) was 0.0754. In the case of TGAAGACA it was 0.0784; in that of CGATTTAC, 0.0735.

Turning to TGCCGTAA, the binding signal (normalized occupancy) turned out to be 0.0796. Turning to GGATTGAA, the binding signal (normalized occupancy) was determined as 0.0718. In the case of CCCCTGTC, the binding signal (normalized occupancy) was determined as 0.0787. Take CCGTCTCC: the binding signal (normalized occupancy) is 0.0692. For the sequence CGCCCGTC, the binding signal (normalized occupancy) was found to be 0.0676.

Regarding CAGTCTCG, the binding signal (normalized occupancy) turned out to be 0.0705. For the sequence CATACTTC, the binding signal (normalized occupancy) was found to be 0.0816. For TGGTGAAA, the binding signal (normalized occupancy) stood at 0.0804. In the case of ATGTCAAT, the binding signal (normalized occupancy) worked out at 0.0778.

With CAGGTGCG, the binding signal (normalized occupancy) is 0.0849. For TCGATTAA the value was 0.0834.

In the case of AGACACGC, the binding signal (normalized occupancy) was determined as 0.0922. In the case of GCGAATAC it was 0.0754; in that of GCCTTCCC, 0.0737; in that of CGTGTCTC, 0.0941. In the case of CGCTACGA it was 0.0757.

For GGGAGCTA, the binding signal (normalized occupancy) worked out at 0.0726. Consider AAGAATCG, for which the binding signal (normalized occupancy) turned out to be 0.07. Regarding CACTGCTA, the binding signal (normalized occupancy) stood at 0.0717. For GGACCAAC the value was 0.0763; for AATACACG, 0.0912; for CCACGCAG, 0.0904. Regarding GCGGAGGA, the binding signal (normalized occupancy) was determined as 0.076. Regarding ACAGGTGG, the binding signal (normalized occupancy) came to 0.0985.

As to AGTCAGAT, the binding signal (normalized occupancy) came out at 0.0722. For the sequence AATCATTG, the binding signal (normalized occupancy) is 0.0748. In the case of CTTCACAC, the binding signal (normalized occupancy) was found to be 0.0777. Consider TCCTTACA, for which the binding signal (normalized occupancy) is 0.0842.

On to AAGCGTCC, for which the binding signal (normalized occupancy) came to 0.07. For ATTAATCC the value was 0.0734; for ATCCCGAA, 0.0714. In the case of GGGCTCTA, the binding signal (normalized occupancy) was determined as 0.0735.

With CGTGTTAC, the binding signal (normalized occupancy) was 0.0896. Turning to CTTTAGCC, the binding signal (normalized occupancy) was determined as 0.0736. As for TATCTTAA, the binding signal (normalized occupancy) came to 0.0728. On to AAGTTGGT, for which the binding signal (normalized occupancy) stood at 0.0732. As to CGCCCACA, the binding signal (normalized occupancy) came to 0.0813. In the case of GAAGTGAA, the binding signal (normalized occupancy) came to 0.0708. In the case of AGGTCACC it was 0.0702; in that of AATATAAC, 0.0791; in that of ATGTTAAG, 0.084. As to ATTACAAC, the binding signal (normalized occupancy) amounted to 0.0852. Regarding GCCCCTGA, the binding signal (normalized occupancy) was 0.0732. In the case of CCTCACCG, the binding signal (normalized occupancy) is 0.0707. For the sequence ATGCGAGC, the binding signal (normalized occupancy) worked out at 0.0809. As to AGCTGCAG, the binding signal (normalized occupancy) is 0.0729. As for GCCGCGGC, the binding signal (normalized occupancy) is 0.0708. For the sequence CATATGCA, the binding signal (normalized occupancy) is 0.0978. With AGTGATTA, the binding signal (normalized occupancy) is 0.0807. For AAGGCTAC, the binding signal (normalized occupancy) was determined as 0.0687. In the case of TACGCATA, the binding signal (normalized occupancy) was determined as 0.0842. In the case of CAAAATAG it was 0.0747. In the case of ATTCGCTA it was 0.075. In the case of TCTGTTAA, the binding signal (normalized occupancy) stood at 0.0739. For ATTCGTGA the value was 0.0769; for CAGTCCCA, 0.0778. As to GCGGCACA, the binding signal (normalized occupancy) came out at 0.0751.

Turning to ATGTGCTC, the binding signal (normalized occupancy) worked out at 0.0926. Consider ATTCCCTA, for which the binding signal (normalized occupancy) came out at 0.0755. With GTTGACCA, the binding signal (normalized occupancy) came to 0.0733. CTAGTGCC: the binding signal (normalized occupancy) stood at 0.0687. AGAGTGCT: the binding signal (normalized occupancy) is 0.0771. In the case of ATTGGGTG, the binding signal (normalized occupancy) was found to be 0.0767. For AACAACTG the value was 0.0714; for CCCAAGGG, 0.0673. Take GTAGTTTA: the binding signal (normalized occupancy) was determined as 0.0707. In the case of CTCCGGAC it was 0.0726. Take GTTGTAGA: the binding signal (normalized occupancy) amounted to 0.0719.

Take ACTGGGAC: the binding signal (normalized occupancy) amounted to 0.0728.

For GAGACGCA, the binding signal (normalized occupancy) stood at 0.0759. As to GGGCGATA, the binding signal (normalized occupancy) was determined as 0.0769. In the case of TGCGAGCA it was 0.0733. For AAGGTTTA the value was 0.0757.

On to CAGTACCC, for which the binding signal (normalized occupancy) came to 0.0847. Consider GTTAGTGA, for which the binding signal (normalized occupancy) came to 0.0792. As for AAGCCAGC, the binding signal (normalized occupancy) turned out to be 0.0666. For TTACACAA the value was 0.0758; for GCGGTAAC, 0.0714; for ATTTCCTC, 0.0778. As to CCGGTCAA, the binding signal (normalized occupancy) turned out to be 0.073.

For the sequence GGCGACAC, the binding signal (normalized occupancy) was determined as 0.0713. In the case of ACGACTCA it was 0.0789; in that of CAACATAA, 0.0815. For ATTTGGAG the value was 0.0716; for ACGTTCCT, 0.0819; for CGCAAATC, 0.0728. Turning to AGTGTATA, the binding signal (normalized occupancy) amounted to 0.0852. On to ATACAGTC, for which the binding signal (normalized occupancy) was 0.0816. For CGGACCTA the value was 0.0696; for GGCAGTAA, 0.0753. For CTTAAAGA the value was 0.0714; for AAGACACG, 0.0809. For the sequence AAACGCCG, the binding signal (normalized occupancy) was 0.0685. Consider AGGCTCTA, for which the binding signal (normalized occupancy) turned out to be 0.0717. Take GTCGACCA: the binding signal (normalized occupancy) turned out to be 0.073. Consider AGCCCGTC, for which the binding signal (normalized occupancy) is 0.0707. With AGATACGA, the binding signal (normalized occupancy) worked out at 0.0754. On to ACGTTGCC, for which the binding signal (normalized occupancy) was 0.0843. Regarding CGGAGTCC, the binding signal (normalized occupancy) was determined as 0.0642. With CCGGAAAC, the binding signal (normalized occupancy) came out at 0.07. For CTCCACGC, the binding signal (normalized occupancy) amounted to 0.101. For the sequence ATGCATGA, the binding signal (normalized occupancy) was 0.0997. For ACACCGCG the value was 0.082. For CATATTGA, the binding signal (normalized occupancy) was 0.0806. In the case of GAAAATCC it was 0.0708; in that of CCCCAGTC, 0.0728.
